{"source": "patent US20240180912A1", "about": "“COMPOSITIONS AND METHODS FOR INHIBITING CREATINE TRANSPORT AS A TREATMENT FOR CANCER” (Inspirna, Inc., priority 2021, published 2024)", "key": {"[1]": {"target": "OATP1B3 (Homo sapiens, UniProt Q9NPD5)", "sequence (Q9NPD5 whole entry)": "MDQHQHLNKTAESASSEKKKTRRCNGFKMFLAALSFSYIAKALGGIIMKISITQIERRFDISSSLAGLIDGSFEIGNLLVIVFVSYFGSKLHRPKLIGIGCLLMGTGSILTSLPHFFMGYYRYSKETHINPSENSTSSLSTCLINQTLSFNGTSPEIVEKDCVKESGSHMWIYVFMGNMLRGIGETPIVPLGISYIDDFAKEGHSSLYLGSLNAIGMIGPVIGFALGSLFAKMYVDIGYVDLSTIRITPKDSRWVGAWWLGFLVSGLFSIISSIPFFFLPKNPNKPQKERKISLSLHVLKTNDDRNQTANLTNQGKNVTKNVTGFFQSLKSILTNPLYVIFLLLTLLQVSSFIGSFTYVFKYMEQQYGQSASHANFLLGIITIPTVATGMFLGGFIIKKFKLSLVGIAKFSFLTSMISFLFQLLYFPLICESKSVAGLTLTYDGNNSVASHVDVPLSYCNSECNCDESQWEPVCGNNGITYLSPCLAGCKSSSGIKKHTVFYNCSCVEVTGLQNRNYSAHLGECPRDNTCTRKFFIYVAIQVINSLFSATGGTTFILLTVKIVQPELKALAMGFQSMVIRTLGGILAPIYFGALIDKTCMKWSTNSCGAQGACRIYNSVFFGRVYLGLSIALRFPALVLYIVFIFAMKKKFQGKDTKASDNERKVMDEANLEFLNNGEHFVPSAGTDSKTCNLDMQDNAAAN", "experiment": "SLC transporter inhibition"}, "[2]": {"test_system": "tumors", "experiment": "cell death in tumors in vivo"}, "[3]": {"test_system": "1A2", "experiment": "CYP induction"}, "[4]": {"target": "OAT3 (Homo sapiens, UniProt Q8TCC7)", "sequence (Q8TCC7 whole entry)": "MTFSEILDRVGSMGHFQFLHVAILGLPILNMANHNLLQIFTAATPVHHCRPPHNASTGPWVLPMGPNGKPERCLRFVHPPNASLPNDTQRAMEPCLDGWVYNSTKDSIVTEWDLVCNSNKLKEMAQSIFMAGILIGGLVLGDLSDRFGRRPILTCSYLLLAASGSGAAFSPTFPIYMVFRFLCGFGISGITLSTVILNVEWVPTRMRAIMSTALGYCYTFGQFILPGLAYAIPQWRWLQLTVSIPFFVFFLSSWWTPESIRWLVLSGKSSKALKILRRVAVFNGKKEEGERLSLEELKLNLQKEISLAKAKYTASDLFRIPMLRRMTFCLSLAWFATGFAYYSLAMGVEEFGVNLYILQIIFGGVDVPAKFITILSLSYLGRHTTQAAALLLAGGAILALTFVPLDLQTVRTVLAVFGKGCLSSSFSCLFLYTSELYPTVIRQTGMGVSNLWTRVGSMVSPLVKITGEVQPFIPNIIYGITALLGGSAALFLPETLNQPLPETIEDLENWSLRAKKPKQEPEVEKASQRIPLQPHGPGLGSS", "experiment": "SLC transporter inhibition"}, "[5]": {"target": "tumoral SLC6A8 (Mus musculus, UniProt Q8VBW1)", "sequence (Q8VBW1 whole entry)": "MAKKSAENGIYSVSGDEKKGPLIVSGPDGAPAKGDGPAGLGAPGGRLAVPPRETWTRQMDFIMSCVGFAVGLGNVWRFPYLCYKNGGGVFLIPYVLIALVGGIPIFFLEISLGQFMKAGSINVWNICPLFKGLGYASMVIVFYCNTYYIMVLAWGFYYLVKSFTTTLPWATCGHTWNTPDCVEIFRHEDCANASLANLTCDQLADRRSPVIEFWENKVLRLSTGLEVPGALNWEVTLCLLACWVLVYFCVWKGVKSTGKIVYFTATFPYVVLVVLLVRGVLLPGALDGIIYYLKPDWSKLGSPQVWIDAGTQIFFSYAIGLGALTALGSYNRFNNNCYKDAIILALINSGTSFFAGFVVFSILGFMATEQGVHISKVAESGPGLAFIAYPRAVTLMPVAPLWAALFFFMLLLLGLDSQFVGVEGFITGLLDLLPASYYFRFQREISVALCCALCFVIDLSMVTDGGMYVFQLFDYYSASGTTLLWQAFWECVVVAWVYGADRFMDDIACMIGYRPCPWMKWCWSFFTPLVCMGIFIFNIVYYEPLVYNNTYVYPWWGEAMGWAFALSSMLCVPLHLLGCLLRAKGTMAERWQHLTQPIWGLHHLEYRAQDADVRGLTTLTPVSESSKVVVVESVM", "experiment": "d3-creatine import into UN-KPC-961 tumors", "details": "800 mg/kg in the diet for 35 days"}, "[6]": {"target": "P-gp (Homo sapiens, UniProt P08183)", "experiment": "ABC transporter inhibition"}, "[7]": {"experiment": "in vitro", "details": "plasma"}, "[8]": {"test_system": "CT26 murine CRC cells", "experiment": "CT26 subcutaneous tumor growth in syngeneic BALB/c mice", "assay_type": "in vivo, mouse", "details": "RGX-202 diet 800 mg/kg, 5-FU 50 mg/kg/week"}, "[9]": {"target": "MATE1 (Homo sapiens, UniProt Q96FL8)", "sequence (Q96FL8 whole entry)": "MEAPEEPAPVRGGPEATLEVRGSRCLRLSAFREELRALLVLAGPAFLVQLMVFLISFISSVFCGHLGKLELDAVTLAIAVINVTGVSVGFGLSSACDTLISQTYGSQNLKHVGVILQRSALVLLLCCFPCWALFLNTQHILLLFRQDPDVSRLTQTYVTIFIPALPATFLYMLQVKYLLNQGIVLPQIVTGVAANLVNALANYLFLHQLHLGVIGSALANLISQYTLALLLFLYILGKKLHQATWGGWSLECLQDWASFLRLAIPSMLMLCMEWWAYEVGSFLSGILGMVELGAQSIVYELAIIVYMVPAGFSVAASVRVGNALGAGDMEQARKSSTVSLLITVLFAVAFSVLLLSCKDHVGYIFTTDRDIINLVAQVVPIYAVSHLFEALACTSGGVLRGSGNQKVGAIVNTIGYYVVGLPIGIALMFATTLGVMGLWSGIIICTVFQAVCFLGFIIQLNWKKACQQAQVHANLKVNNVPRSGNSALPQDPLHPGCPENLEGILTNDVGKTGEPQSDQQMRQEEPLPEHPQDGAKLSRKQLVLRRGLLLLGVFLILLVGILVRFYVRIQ", "experiment": "SLC transporter inhibition"}, "[10]": {"test_system": "colon cancer cells"}, "[11]": {"experiment": "solubility", "assay_type": "physicochemical"}, "[12]": {"target": "OATP1B1 (Homo sapiens, UniProt Q9Y6L6)", "sequence (Q9Y6L6 whole entry)": "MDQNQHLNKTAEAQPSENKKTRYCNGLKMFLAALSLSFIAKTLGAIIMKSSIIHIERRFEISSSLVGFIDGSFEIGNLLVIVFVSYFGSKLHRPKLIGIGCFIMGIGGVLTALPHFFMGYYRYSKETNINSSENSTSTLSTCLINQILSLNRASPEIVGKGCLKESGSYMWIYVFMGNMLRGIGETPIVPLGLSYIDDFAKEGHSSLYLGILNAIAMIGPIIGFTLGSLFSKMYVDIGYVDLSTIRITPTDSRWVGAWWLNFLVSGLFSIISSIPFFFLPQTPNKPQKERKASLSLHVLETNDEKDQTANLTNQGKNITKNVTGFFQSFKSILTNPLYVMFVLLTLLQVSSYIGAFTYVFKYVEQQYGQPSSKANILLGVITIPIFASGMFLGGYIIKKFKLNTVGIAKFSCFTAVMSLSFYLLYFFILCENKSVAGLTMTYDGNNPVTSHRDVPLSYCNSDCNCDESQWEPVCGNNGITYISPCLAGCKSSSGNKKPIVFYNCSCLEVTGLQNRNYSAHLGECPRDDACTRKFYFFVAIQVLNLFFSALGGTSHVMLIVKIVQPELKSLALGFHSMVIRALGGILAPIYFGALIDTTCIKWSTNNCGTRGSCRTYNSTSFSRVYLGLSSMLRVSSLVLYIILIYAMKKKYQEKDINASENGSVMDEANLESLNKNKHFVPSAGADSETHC", "experiment": "SLC transporter inhibition"}, "[13]": {"target": "rCYP2E1 (Homo sapiens, UniProt P05181)", "sequence (P05181 whole entry)": "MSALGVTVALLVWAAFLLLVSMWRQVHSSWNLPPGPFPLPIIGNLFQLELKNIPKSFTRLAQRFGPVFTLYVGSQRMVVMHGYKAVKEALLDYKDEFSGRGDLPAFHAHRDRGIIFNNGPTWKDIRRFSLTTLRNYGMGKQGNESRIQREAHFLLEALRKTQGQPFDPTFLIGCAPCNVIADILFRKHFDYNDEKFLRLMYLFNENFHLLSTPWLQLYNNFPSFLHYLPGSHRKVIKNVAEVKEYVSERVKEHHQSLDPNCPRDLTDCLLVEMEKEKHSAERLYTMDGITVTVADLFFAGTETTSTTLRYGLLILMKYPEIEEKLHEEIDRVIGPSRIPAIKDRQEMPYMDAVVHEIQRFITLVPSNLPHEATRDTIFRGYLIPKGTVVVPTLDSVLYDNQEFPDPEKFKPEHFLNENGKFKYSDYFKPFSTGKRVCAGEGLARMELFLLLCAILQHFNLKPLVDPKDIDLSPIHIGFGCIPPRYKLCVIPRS", "experiment": "CYP substrate test"}, "[14]": {"experiment": "urinary excretion in DRF study", "assay_type": "in vivo", "excerpt": "The potential for biliary excretion of RGX-202 has not been evaluated."}, "[15]": {"target": "CYP 1A2 (Homo sapiens, UniProt P05177)", "experiment": "biochemical"}, "[16]": {"target": "SLC6A8 (Mus musculus, UniProt Q8VBW1)", "sequence (Q8VBW1 whole entry)": "as the sequence (Q8VBW1 whole entry) above", "experiment": "in vivo d3-creatine uptake into heart tissue, LC-MS/MS", "details": "ip, read-out: inhibition of tissue uptake of d3-creatine"}, "[17]": {"test_system": "3A", "experiment": "CYP induction"}, "[18]": {"test_system": "liver hepatocytes", "experiment": "hepatocyte metabolism", "details": "rat"}, "[19]": {"test_system": "2B6", "experiment": "CYP induction"}, "[20]": {"test_system": "HCT-116 colon cancer cells", "details": "human"}, "[21]": {"target": "rCYP2D6 (Homo sapiens, UniProt P10635)", "experiment": "CYP substrate test"}, "[22]": {"target": "rCYP2J2 (Homo sapiens, UniProt P51589)", "experiment": "CYP substrate test"}, "[23]": {"target": "CYP 2 C9 (Homo sapiens, UniProt P11712)"}, "[24]": {"target": "rCYP2C8 (Homo sapiens, UniProt P10632)", "experiment": "CYP substrate test"}, "[25]": {"target": "OAT1 (Homo sapiens, UniProt Q4U2R8)", "sequence (Q4U2R8 whole entry)": "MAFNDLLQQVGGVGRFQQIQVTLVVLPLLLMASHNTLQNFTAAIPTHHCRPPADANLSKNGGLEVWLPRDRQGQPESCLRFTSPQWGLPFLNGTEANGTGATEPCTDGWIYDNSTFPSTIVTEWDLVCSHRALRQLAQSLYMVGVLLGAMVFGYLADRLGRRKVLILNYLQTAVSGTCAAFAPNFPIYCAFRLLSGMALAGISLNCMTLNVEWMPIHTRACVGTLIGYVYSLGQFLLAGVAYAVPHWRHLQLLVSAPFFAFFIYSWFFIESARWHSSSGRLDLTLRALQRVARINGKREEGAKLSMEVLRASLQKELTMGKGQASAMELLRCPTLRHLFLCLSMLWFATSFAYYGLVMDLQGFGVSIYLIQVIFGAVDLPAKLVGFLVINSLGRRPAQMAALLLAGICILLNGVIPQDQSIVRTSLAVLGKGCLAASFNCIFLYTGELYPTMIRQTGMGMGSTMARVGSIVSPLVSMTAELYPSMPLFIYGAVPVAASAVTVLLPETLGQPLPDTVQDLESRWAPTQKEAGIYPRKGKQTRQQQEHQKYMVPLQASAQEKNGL", "experiment": "SLC transporter inhibition"}, "[26]": {"target": "CYP 2E1 (Homo sapiens, UniProt P05181)", "sequence (P05181 whole entry)": "as the sequence (P05181 whole entry) above", "experiment": "biochemical"}, "[27]": {"target": "rCYP2A6 (Homo sapiens, UniProt P11509)", "sequence (P11509 whole entry)": "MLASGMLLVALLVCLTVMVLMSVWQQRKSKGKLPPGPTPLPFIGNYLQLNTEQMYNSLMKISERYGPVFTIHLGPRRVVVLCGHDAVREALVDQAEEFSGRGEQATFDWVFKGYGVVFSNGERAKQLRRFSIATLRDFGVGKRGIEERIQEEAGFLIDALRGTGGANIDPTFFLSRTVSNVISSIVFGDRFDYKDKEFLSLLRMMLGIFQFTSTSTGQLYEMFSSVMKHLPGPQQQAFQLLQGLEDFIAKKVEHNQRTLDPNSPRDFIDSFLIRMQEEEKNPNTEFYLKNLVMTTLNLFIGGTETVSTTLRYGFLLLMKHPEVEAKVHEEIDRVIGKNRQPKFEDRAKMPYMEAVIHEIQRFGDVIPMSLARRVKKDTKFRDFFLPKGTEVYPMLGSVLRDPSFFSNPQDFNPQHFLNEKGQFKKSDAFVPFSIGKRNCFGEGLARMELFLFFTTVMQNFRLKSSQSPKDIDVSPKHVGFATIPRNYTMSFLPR", "experiment": "CYP substrate test"}, "[28]": {"test_system": "liver hepatocytes", "experiment": "hepatocyte metabolism", "details": "monkey"}, "[29]": {"test_system": "liver hepatocytes", "experiment": "hepatocyte metabolism", "details": "human"}}}
{"smiles": "N=C(N)NCCC(=O)O", "note": "[RGX-202, β-Guanidinoproprionic acid]", "values": [{"measurement": "inhibitor of OATP1B3", "setting": "[1]", "value": "not an inhibitor"}, {"measurement": "induced cell death in tumors in vivo", "setting": "[2]", "value": "5-15 fold"}, {"measurement": "induction of 1A2", "setting": "[3]", "value": "no induction"}, {"measurement": "inhibitor of OAT3", "setting": "[4]", "value": "not an inhibitor"}, {"measurement": "suppression of tumoral d3-creatine import", "setting": "[5]", "value": 50, "unit": "%"}, {"measurement": "inhibitor of P-gp", "setting": "[6]", "value": "not an inhibitor"}, {"measurement": "fraction unbound", "setting": "[7]", "value": "0.604 to 0.685"}, {"measurement": "tumor growth inhibition", "setting": "[8]", "value": 66, "unit": "%"}, {"measurement": "inhibitor of MATE1", "setting": "[9]", "value": "not an inhibitor"}, {"measurement": "induced cell death in colon cancer cells in vitro", "setting": "[10]", "value": "~7", "unit": "fold"}, {"measurement": "reduced cell viability in vitro", "setting": "[10]", "value": "15-60%"}, {"measurement": "solubility in organic solvents", "setting": "[11]", "value": "low solubility"}, {"measurement": "solubility", "setting": "[11]; water", "value": "> 50", "unit": "mg/mL"}, {"measurement": "inhibitor of OATP1B1", "setting": "[12]", "value": "not an inhibitor"}, {"measurement": "substrate of rCYP2E1", "setting": "[13]", "value": "not a substrate"}, {"measurement": "amount found in the urine", "setting": "[14]; dog", "value": "significant amounts"}, {"measurement": "amount found in the urine", "setting": "[14]; rat", "value": "significant amounts"}, {"measurement": "IC50", "setting": "[15]", "value": "> 100", "unit": "µM"}, {"measurement": "inhibition at 500 mg/kg", "setting": "[16]", "value": "≤ 75", "unit": "%"}, {"measurement": "induction of 3A", "setting": "[17]", "value": "no induction"}, {"measurement": "metabolism by hepatocytes", "setting": "[18]", "value": "not metabolized"}, {"measurement": "induction of 2B6", "setting": "[19]", "value": "no induction"}, {"measurement": "reduction of cell viability", "setting": "[20]", "value": "15-35%"}, {"measurement": "substrate of rCYP2D6", "setting": "[21]", "value": "not a substrate"}, {"measurement": "substrate of rCYP2J2", "setting": "[22]", "value": "not a substrate"}, {"measurement": "IC50", "setting": "[23]", "value": "> 100", "unit": "µM"}, {"measurement": "substrate of rCYP2C8", "setting": "[24]", "value": "not a substrate"}, {"measurement": "inhibitor of OAT1", "setting": "[25]", "value": "not an inhibitor"}, {"measurement": "IC50", "setting": "[26]", "value": "> 100", "unit": "µM"}, {"measurement": "substrate of rCYP2A6", "setting": "[27]", "value": "not a substrate"}, {"measurement": "metabolism by hepatocytes", "setting": "[28]", "value": "not metabolized"}, {"measurement": "metabolism by hepatocytes", "setting": "[29]", "value": "not metabolized"}]}
